Test results taken from PubChem BioAssay AID1347041 (National Center for Advancing Translational Sciences (NCATS), 2019).
Among all 480,000 compounds or so, about 740 (0.15%) were called active. This list was built around the results that the source calls inconclusive (neither active nor inactive); the mix of calls is not that of the screen. No stated cut-off is given here; in the data, active means activity change below about -30%; inconclusive means mostly about -25% to -30%; inactive means weaker than that.

target: L-lactate dehydrogenase A chain (Homo sapiens) (UniProt P00338); assay: qHTS assay for inhibitors of human lactate dehydrogenase; details: purified LDHA, NADH/diaphorase-resazurin fluorescence; stronger effect = lower value;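 further: values are at about 110 or 230 µM; plate controls were DMSO wells for no effect and wells without enzyme for full effect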
How it was run: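 LDH5 2 nM; NADH 0.06 mM, pyruvate 0.2 mM; 200 mM Tris pH 7.4, EDTA, Tween-20; 5 min RT. Detection: diaphorase 0.133 mg/mL + resazurin 37 µM, fluorescence ex540/em590 at 0 and 20 min; normalized to enzyme-free and DMSO wells.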

Row | Compound | activity change
1 | CC(=O)C1=C(C)OC(N)=C(C#N)C1c1ccco1 (centres undefined) | inactive: 11%
2 | COc1cc(OC)c(C(=O)Nc2nnc(C)s2)cc1OC | inconclusive: -27.5%
3 | Cc1ccccc1C(=O)N1CCN(c2nc(N3CCOCC3)nc(N3CCOCC3)n2)CC1 | inconclusive: -29.4%
4 | O=C1CCCN1CN1CCCCC1 | inconclusive: -25.2%
5 | Cc1ccc2c(c1)cc(C(=O)Nc1ccccc1C)n2C | inconclusive: -25.7%
6 | CCOC(=O)c1ccc(NC(=O)CC2SC(c3cc4ccccc4oc3=O)=NC2=O)cc1 (centres undefined) | active: -30.6%
7 | COc1ccc(NC(=O)CCc2ncc(-c3ccccc3)o2)c(OC)c1 | inactive: -20.9%
8 | CCN(Cc1ccc(OC)cc1)Cc1cc(=O)oc2ccc(C)cc12 | inconclusive: -27.4%
9 | O=C1CC(C(=O)Nc2ccc(Cl)cc2)S/C(=N\N=C\c2ccco2)N1 (centres undefined) | inconclusive: -27.6%
10 | CCc1nc(C)ccc1OCC(=O)NCCCN(C)C | active: -32.8%
11 | Cn1c(=O)c2c(nc(CN3CCN(Cc4ccccc4)CC3)n2Cc2ccc(Cl)cc2)n(C)c1=O | inconclusive: -28.7%
12 | COc1ccc(C(=O)Nc2cc(Cl)ccc2C(=O)O)cc1 | inconclusive: -28.1%
13 | CC1CCCN(CCOCCOc2ccc(Br)cc2Cl)C1 (centres undefined) | inconclusive: -28.3%
14 | CC1(C)CC(=O)C2=C(C1)NC(Nc1nc3ccccc3o1)=NC2c1cccc(Cl)c1 (centres undefined) | active: -30.3%
15 | Nc1nc(CSc2cccc[n+]2[O-])nc2ccccc12 | inconclusive: -26.4%
16 | C=CCNC(=O)NC(=O)CN(Cc1ccccc1)CC(C)C(=O)OC (centres undefined) | inconclusive: -25.4%
17 | CC1=C([N+](=O)[O-])C(c2ccc(O)c(O)c2)NC(=O)N1 (centres undefined) | inactive: 3.34%
18 | NS(=O)(=O)c1ccc(NC2=CC(c3ccc([N+](=O)[O-])cc3)N(c3ccc(S(N)(=O)=O)cc3)C2=O)cc1 (centres undefined) | inconclusive: -25.6%
19 | CC(=O)c1cccc(NC(=O)c2cccc[n+]2[O-])c1 | inconclusive: -25.4%
20 | Cc1c(CC(=O)O)c(=O)oc2cc3occ(-c4ccc(F)cc4)c3cc12 | active: -42.1%

Row | Compound | activity change
21 | Fc1cccc(F)c1CN1CCN(c2ncccn2)CC1 | inactive: 5.34%
22 | COc1cc(/C=N/NC(=O)CNc2cccc(C(F)(F)F)c2)ccc1OC(=O)c1ccccc1F | active: -32.2%
23 | CCCN1CCN(C2=NC(Cc3ccccc3)C(=O)N2c2ccccc2OC)CC1 (centres undefined) | inconclusive: -27.3%
24 | CCCc1cc(=O)oc2c(C)c(OC(C)C(=O)NCCCn3ccnc3)ccc12 (centres undefined) | active: -33.2%
25 | NC(=O)CN1c2ccc(Br)cc2-c2ccccc2S1(=O)=O | inactive: -6.08%
26 | NCCCOc1cccc2ccccc12 | inconclusive: -25.5%
27 | CN1OC[C@@H]2CN(S(=O)(=O)c3cccc4ccccc34)[C@H](c3ccc(-c4ccccc4)cc3)C[C@@H]21 | active: -30.3%
28 | Cc1ccc(C(=O)/C=C/c2c(C)n[nH]c2C)cc1C | inconclusive: -25.4%
29 | Cc1nc2ccc(C(=O)N3CCOC(C)C3)cc2nc1C (centres undefined) | inconclusive: -27.3%
30 | O=C(N/N=C/c1cc(Br)cc(Cl)c1O)c1ccc2c(c1)OCO2 | active: -31.9%
31 | CCOc1ccc(CNCc2ccccn2)cc1OCC | inconclusive: -26.2%
32 | Cc1ccccc1CN1CCN(Cc2ccccc2C(F)(F)F)CC1 | active: -38.6%
33 | O=C(NC(=S)Nc1ccccn1)c1ccc([N+](=O)[O-])cc1 | inconclusive: -25.8%
34 | COc1ccc(CC(=O)Nc2ccc3c(c2)NC(=O)C(C)O3)cc1 (centres undefined) | inconclusive: -27.3%
35 | O=C(Nc1oc2ccccc2c(=O)c1-c1ccc2c(c1)OCO2)c1ccc(F)cc1 | inactive: 2.48%
36 | Cc1ccc(-n2nnc(C(=O)N(C)c3ccccc3)c2C)cc1Cl | inconclusive: -26%
37 | Clc1ccccc1C1=Nn2c(nnc2-c2ccncc2)SC1 | inactive: -3.67%
38 | Cc1ccc(OCCN2C(=O)c3ccccc3C2=O)c([N+](=O)[O-])c1 | inactive: -5.77%
39 | N#Cc1nc(C2CC2)oc1N1CCN(Cc2ccc(Cl)cc2)CC1 | inactive: 1.29%
40 | Cc1cc(C)c(S(=O)(=O)c2ccccc2)c(OC(=O)c2c(F)cccc2F)n1 | active: -49.9%

Row | Compound | activity change
41 | CCOc1ccc(CN2CCN(C(=O)c3cccc(F)c3)CC2)cc1 | inconclusive: -25.4%
42 | Cc1cccc(NC(=O)c2oc3ccccc3c2NC(=O)c2nn(-c3ccc(F)cc3)ccc2=O)c1 | inconclusive: -26.3%
43 | O=C(CN=C1NS(=O)(=O)c2ccccc21)NCCc1ccccn1 | inconclusive: -29.1%
44 | Brc1ccccc1-c1nc2cc3c(cc2[nH]1)OCCO3 | inconclusive: -26.9%
45 | CC1CCCC(C)N1S(=O)(=O)c1ccc(Cl)cc1 (centres undefined) | inactive: 0.304%
46 | Cc1ccccc1NC(=O)Cc1nc(COC(=O)COc2ccccc2C(C)C)cs1 | inactive: -2.07%
47 | CCN(CC)C(=O)C1CCCN(Cc2ccc3c(c2)OCO3)C1 (centres undefined) | inconclusive: -26.9%
48 | c1ccc(Nc2nc(-c3ccncc3)nc3ccccc23)cc1 | inactive: -5.5%
49 | CC1=C(Cl)C2=NS(=O)(=O)CCN2C=C1Cl | inconclusive: -25.3%
50 | Cc1cccc(C(=O)NNC(=O)c2ccc3ccccc3c2)c1 | active: -38.5%
51 | Cc1ccc(NS(=O)(=O)c2ccc(Cl)c(C(=O)Nc3ccccc3-c3nc4ccccc4[nH]3)c2)cc1C | inactive: -4.92%
52 | CCC(=O)c1ccccc1OCCCCn1cncn1 | inconclusive: -29%
53 | O=C(O)c1c(C(=O)O)c(-c2ccc(Cl)c(Cl)c2)n2c1CSC2 | inconclusive: -30%
54 | COc1cc(CN(C)CCc2ccccn2)cc(OC)c1OC | active: -30.6%
55 | Cc1ccc(OC(=O)C(C)Oc2ccc(Cl)cc2Cl)c(C)c1 (centres undefined) | inactive: 2.9%
56 | CN(C)CCOc1ccccc1-c1ccccc1 | inconclusive: -31.3%
57 | O=C(CNc1ccc(Br)cc1)N(C1CCCCC1)C1CCS(=O)(=O)C1 (centres undefined) | inconclusive: -27.4%
58 | OC(CNCCc1ccc(Cl)cc1)COCc1ccco1 (centres undefined) | inconclusive: -25.1%
59 | CC(C)(C)c1ccc(C(=O)NC(Nc2ccc(I)cc2)C(Cl)(Cl)Cl)cc1 (centres undefined) | inconclusive: -25.6%
